This note sets out measurements from patent US10299477B2 (priority 2015, dated 2019).

What all share (format): in vivo
Assay [1] concerns Botrytis cinerea. Kind of assay: Test Example B: Gray mold on tomato. The following applies: for Test B (control value class, gray mold on tomato): in vivo; for Test B control value (gray mold on tomato): preventive, control value class. The source says: [Test Example B] Gray Mold on Tomato
Seeds of a test plant (tomato variety: Oogata Fukuju) were planted followed by cultivating until three to five first leaves (true leaves) appeared.

Assay [2] concerns Alternaia brassicicola. Kind of assay: Test Example C: Alternaria sooty spot on cabbage. The note with it: for Test C (control value class, Alternaria sooty spot on cabbage): in vivo; for Test C control value (Alternaria sooty spot on cabbage): preventive, control value class. From the text: [Test Example C] Alternaria Sooty Spot on Cabbage
Seeds of a test plant (cabbage variety: Shikidori) were planted followed by cultivating until the cotyledons extended.

Assay [3] deals with Blumeria graminis f sp. hordei. Kind of assay: Test Example D: Powdery mildew on barley. The following applies: for Test D (control value class, powdery mildew on barley): in vivo; for Test D control value (powdery mildew on barley): preventive, control value class. The source says: [Test Example D] Powdery Mildew on Barley
After the sprayed dilutions were dried, conidia of Blumeria graminis f sp. hordei were inoculated to the plants by shaking off.

Assay [4] has as its system Puccinia recondita. Kind of assay: Test Example E: Brown rust on wheat. The following applies: for Test E (control value class, brown rust on wheat): in vivo; for Test E control value (brown rust on wheat): preventive, control value class. The source says: [Test Example E] Brown Rust on Wheat
Assay [5] concerns Plasmopara viticola. The assay is described as follows: Test Example G: Downy mildew on vine. The note with it: for Test G (control value class, downy mildew on vine): 250 ppm, sprayed 2.5 ml/pot before inoculation, evaluated 7-10 days after inoculation; for Test G control value (downy mildew on vine): 250 ppm spray (2.5 ml/pot), preventive, control value class. From the text:
[Test Example G] Downy Mildew on Vine
Seeds of a test plant (grape variety: Neomuscat) were planted followed by cultivating until three to four first leaves appeared. […] After the sprayed dilutions were dried, a zoosporangia suspension (1-2×10^4 zoosporangia/ml) of Plasmopara viticola was inoculated to the plants by spraying.

For the compound `COc1cc(F)c(-c2c(-c3cccc(OC)c3Cl)cc(C)c(=O)n2C)c(F)c1` [Compound 672], the “Test B (control value class, gray mold on tomato)” value in assay [1] is given as “H (H shows more than 50% of control values)”. The “Test C (control value class, Alternaria sooty spot on cabbage)” value in assay [2] is on record as “H (H shows more than 50% of control values)”. Moreover, the “Test D (control value class, powdery mildew on barley)” value in assay [3] is “H (H shows more than 50% of control values)”. Moreover, the “Test E (control value class, brown rust on wheat)” value in assay [4] is “H (H shows more than 50% of control values)”. Moreover, the “Test G (control value class, downy mildew on vine)” value in assay [5] is “H (H shows more than 50% of control values)”.

For the compound `CCn1c(-c2c(F)cc(OC)cc2F)c(-c2cccc(F)c2C)cc(Br)c1=O` [Compound 711], in assay [1], the “Test B (control value class, gray mold on tomato)” value is on record as “H (H shows more than 50% of control values)”. In addition, in assay [2], the “Test C (control value class, Alternaria sooty spot on cabbage)” value is recorded as “H (H shows more than 50% of control values)”. In addition, the “Test D (control value class, powdery mildew on barley)” value in assay [3] is on record as “H (H shows more than 50% of control values)”. Moreover, the “Test E (control value class, brown rust on wheat)” value in assay [4] is “H (H shows more than 50% of control values)”. In assay [5], the “Test G (control value class, downy mildew on vine)” value is on record as “H (H shows more than 50% of control values)”.

For the compound `COc1ccc(Cl)c(-c2ccc(=O)n(CC(F)F)c2-c2c(F)cccc2F)c1` [Compound 194, 5-(2-chloro-5-methoxyphenyl)-1-(2,2-difluoroethyl)-6-(2,6-difluorophenyl)pyridine-2(1H)-one], in assay [1] (250 ppm spray), the “Test B control value (gray mold on tomato)” value (“Test B control value” for short) was “H (H shows more than 50% of control values)”. Also, the “Test C control value (Alternaria sooty spot on cabbage)” value (“Test C control value” for short) in assay [2] (250 ppm spray) is recorded as “H (H shows more than 50% of control values)”. The “Test D control value (powdery mildew on barley)” value (shortened to “Test D control value”) in assay [3] (250 ppm spray) is listed as “H (H shows more than 50% of control values)”. Also, the “Test E control value (brown rust on wheat)” value (“Test E control value” below) in assay [4] (250 ppm spray) was “H (H shows more than 50% of control values)”. Moreover, the “Test G control value (downy mildew on vine)” value (“Test G control value” below) in assay [5] (7-10 days after inoculation) was “L (L shows 50% or less of control values)”.

As to `CCOc1cc(F)c(-c2c(-c3cc(OC)cc(OC)c3Cl)ccc(=O)n2C)c(F)c1` [Compound 247], the “Test B control value” value in assay [1] (250 ppm spray) is recorded as “H (H shows more than 50% of control values)”. Moreover, the “Test C control value” value in assay [2] (250 ppm spray) is recorded as “H (H shows more than 50% of control values)”. Besides, the “Test D control value” value in assay [3] (250 ppm spray) was “H (H shows more than 50% of control values)”. In addition, the “Test E control value” value in assay [4] (250 ppm spray) is reported as “H (H shows more than 50% of control values)”. In addition, the “Test G control value” value in assay [5] (7-10 days after inoculation) is listed as “H (H shows more than 50% of control values)”.

Regarding `CCn1c(-c2c(F)cncc2F)c(-c2cc(OC)cc(OC)c2Br)ccc1=O` [Compound 216], the “Test B control value” value in assay [1] (250 ppm spray) is on record as “H (H shows more than 50% of control values)”. In assay [2] (250 ppm spray), the “Test C control value” value is listed as “H (H shows more than 50% of control values)”. In addition, in assay [3] (250 ppm spray), the “Test D control value” value was “H (H shows more than 50% of control values)”. Also, in assay [4] (250 ppm spray), the “Test E control value” value was “H (H shows more than 50% of control values)”. For the same compound, the “Test G control value” value in assay [5] (7-10 days after inoculation) is “H (H shows more than 50% of control values)”.

For `CCn1c(-c2c(F)cc(F)cc2F)c(-c2cc(F)ccc2Cl)cc(Br)c1=O` [Compound 381, 3-bromo-5-(2-chloro-5-fluorophenyl)-1-ethyl-6-(2,4,6-trifluorophenyl)pyridine-2(1H)-one], the “Test B (control value class)” value in assay [1] (gray mold on tomato, Botrytis cinerea, 250 ppm spray) is listed as “H (H shows more than 50% of control values)”. Moreover, the “Test C (control value class)” value in assay [2] (Alternaria sooty spot on cabbage, 250 ppm spray) was “H (H shows more than 50% of control values)”. Moreover, the “Test D (control value class)” value in assay [3] (powdery mildew on barley, 250 ppm spray) is on record as “H (H shows more than 50% of control values)”. In addition, the “Test E (control value class)” value in assay [4] (brown rust on wheat, Puccinia recondita, 250 ppm spray) was “H (H shows more than 50% of control values)”. Further, in assay [5] (downy mildew on vine, Plasmopara viticola, 250 ppm spray, 7-10 days after inoculation), the “Test G (control value class)” value was “L (L shows 50% or less of control values)”.
